Test results: ChEMBL document CHEMBL4342470, “Detection of Active Granzyme A in NK92 Cells with Fluorescent Activity-Based Probe” (J Med Chem, 2020)

System: CC(=O)N1Cc2ccccc2C[C@H]1C(=O)NCC(=O)N1C2CCCCC2C[C@H]1C(=O)N[C@@H](CCCNC(=N)N)C(=O)Nc1ccc2c(CC(N)=O)cc(=O)oc2c1
Experiment: Substrate activity at Granzyme B (unknown origin) expressed in Pichia pastoris incubated for 30 mins by fluorescence based assay
Conditions: Homo sapiens

Granzyme B (Homo sapiens) (letters omitted)
Not Active: Km | kcat | kcat/Km
